Source: the supplement of paper PMC12355420
Counter-ions that a name gives are not always drawn. Some of the results follow. Repeats are few or missing, and single values can be far off.

Tested on: HeLa VPS33A reporter cells
Assay: relative cell viability (CellMask signal) vs DMSO (fraction of DMSO); HeLa model of a glycosaminoglycan (GAG) storage disease; KI is knock-in and KO knock-out; SDC1 is syndecan 1; higher = less cytotoxic
Settings: 50 µM; 24 h
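Note: primary screen of an FDA-approved drug library in HeLa reporter cells in 96-well format, CellMask signal normalized to DMSO-treated wells set as 1, under 0.5 deemed highly cytotoxic.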

| Compound | relative cell viability |
| --- | --- |
| O=C(O[C@H]1CN2CCC1CC2)N1CCc2ccccc2[C@@H]1c1ccccc1 [Solifenacin succinate] | 0.00588 |
| C=C[C@]1(C)C[C@@H](OC(=O)CSC(C)(C)CNC(=O)[C@H](N)C(C)C)[C@]2(C)[C@H](C)CC[C@]3(CCC(=O)[C@H]32)[C@@H](C)[C@@H]1O [Valnemulin HCl] | 0.0115 |
| COc1cc(NS(C)(=O)=O)ccc1Nc1c2ccccc2nc2ccccc12 [Amsacrine hydrochloride] | 0.00697 |
| CC1(C)CCC(CN2CCN(c3ccc(C(=O)NS(=O)(=O)c4ccc(NCC5CCOCC5)c([N+](=O)[O-])c4)c(Oc4cnc5[nH]ccc5c4)c3)CC2)=C(c2ccc(Cl)cc2)C1 | 0.0223 |
| CCCOc1ccc2[nH]c(NC(=O)OC)nc2c1 [Oxibendazole] | 0.464 |
| Clc1ccc(C(Cn2ccnc2)OCc2ccc(Sc3ccccc3)cc2)c(Cl)c1 (centres undefined) [Fenticonazole Nitrate] | 0.00563 |
| CCOC(=O)C1=C(COCCN)NC(C)=C(C(=O)OC)C1c1ccccc1Cl (centres undefined) [Amlodipine Besylate] | 0.00413 |
| CC(C)(C)c1ccc(C(O)CCCN2CCC(C(O)(c3ccccc3)c3ccccc3)CC2)cc1 (centres undefined) [Terfenadine] | 0.00724 |
| CCNC1(C(N)=O)CCN(c2ncnc3c2nc(-c2ccccc2Cl)n3-c2ccc(Cl)cc2)CC1 | 0.00425 |
| CC(C)Oc1ccc(-c2nc(-c3cccc4c3CC[C@@H]4NCCO)no2)cc1C#N [Ozanimod (RPC1063)] | 0.00696 |
| CC(=O)O[C@H]1CC[C@@]2(C)C(=CC[C@@H]3[C@@H]2CC[C@]2(C)C(c4cccnc4)=CC[C@@H]32)C1 [Abiraterone acetate] | 0.077 |
| CC(C)(C)c1cc(NC(=O)Nc2ccc(-c3cn4c(n3)sc3cc(OCCN5CCOCC5)ccc34)cc2)no1 [Quizartinib (AC220)] | 0.202 |
| CN(C)CCC=C1c2ccccc2C=Cc2ccccc21 [Cyclobenzaprine HCl] | 0.0118 |
| CN(C)c1ccc(C(=C2C=CC(=[N+](C)C)C=C2)c2ccc(N(C)C)cc2)cc1 [Crystal Violet] | 0.0133 |
| CCN(CC)CCNC(=O)c1c(C)[nH]c(/C=C2\C(=O)Nc3ccc(F)cc32)c1C [Sunitinib malate] | 0.00643 |
| CC(COc1ccccc1)N(CCCl)Cc1ccccc1 (centres undefined) [Phenoxybenzamine HCl] | 0.394 |
| C[C@@H](O[C@H]1OCCN(Cc2nn(P(=O)(O)O)c(=O)[nH]2)[C@H]1c1ccc(F)cc1)c1cc(C(F)(F)F)cc(C(F)(F)F)c1 [Fosaprepitant dimeglumine salt] | 0.00413 |
| COC(=O)Nc1nc2cc(Sc3ccccc3)ccc2[nH]1 [Fenbendazole] | 0.202 |
| CC(Cc1ccc(O)c(O)c1)C(C)Cc1ccc(O)c(O)c1 (centres undefined) [Nordihydroguaiaretic acid] | 0.00593 |
| CC(C)C[C@H](NC(=O)[C@H](CCc1ccccc1)NC(=O)CN1CCOCC1)C(=O)N[C@@H](Cc1ccccc1)C(=O)N[C@@H](CC(C)C)C(=O)[C@@]1(C)CO1 [Carfilzomib (PR-171)] | 0.0182 |

| Compound | relative cell viability |
| --- | --- |
| C=C1/C(=C\C=C2/CCC[C@]3(C)[C@@H]([C@H](C)/C=C/[C@H](C)C(C)C)CC[C@@H]23)C[C@@H](O)C[C@@H]1O [Doxercalciferol] | 0.00381 |
| CC(NCCC(c1ccccc1)c1ccccc1)c1ccccc1 (centres undefined) [Fendiline (hydrochloride)] | 0.00775 |
| CO/N=C1\C[C@]2(C[C@@H]3C[C@@H](C/C=C(\C)C[C@@H](C)/C=C/C=C4\CO[C@@H]5[C@H](O)C(C)=C[C@@H](C(=O)O3)[C@]45O)O2)O[C@H](/C(C)=C/C(C)C)[C@H]1C [Moxidectin] | 0.00468 |
| Clc1ccc(CO/N=C(\Cn2ccnc2)c2ccc(Cl)cc2Cl)c(Cl)c1 [Oxiconazole (nitrate)] | 0.00603 |
| CCOC(=O)C1=C(C)NC(C)=C(C(=O)OC)C1c1cccc(Cl)c1Cl (centres undefined) [Felodipine] | 0.0199 |
| Clc1ccc(CSC(Cn2ccnc2)c2ccc(Cl)cc2Cl)cc1 (centres undefined) [Sulconazole Nitrate] | 0.00495 |
| C[C@@H](Oc1cc(-c2cnn(C3CCNCC3)c2)cnc1N)c1c(Cl)ccc(F)c1Cl [Crizotinib hydrochloride] | 0.00386 |
| CN1CCN(C2=Nc3ccccc3Oc3ccc(Cl)cc32)CC1 [Loxapine Succinate] | 0.00664 |
| CCCCCCCCCCCCCCCCOP(=O)([O-])OCC[N+](C)(C)C [Miltefosine] | 0.0102 |
| CC1(COc2ccc3c(c2)ncn3-c2ccc3cccc(N4CCC(N)CC4)c3n2)COC1 | 0.00572 |
| COc1cc2nc(N3CCN(C(=O)C4COc5ccccc5O4)CC3)nc(N)c2cc1OC (centres undefined) [Doxazosin Mesylate] | 0.0045 |
| CC/C(=C(\c1ccccc1)c1ccc(OCCN(C)C)cc1)c1ccccc1 [Tamoxifen] | 0.00836 |
| CC(=O)N1CCN(c2ccc(OCC3COC(Cn4ccnc4)(c4ccc(Cl)cc4Cl)O3)cc2)CC1 (single isomer, unassigned; (+)) [(+)-Ketoconazole] | 0.0634 |
| CO[C@H]1C[C@@H]2CC[C@@H](C)[C@@](O)(O2)C(=O)C(=O)N2CCCC[C@H]2C(=O)O[C@H]([C@H](C)C[C@@H]2CC[C@@H](O)[C@H](OC)C2)CC(=O)[C@H](C)/C=C(\C)[C@@H](O)[C@@H](OC)C(=O)[C@H](C)C[C@H](C)/C=C/C=C/C=C/1C [Rapamycin (Sirolimus)] | 0.00696 |
| COC(=O)C1=CO[C@@H](O)[C@@H]2C(CO)=CC[C@H]12 [Genipin] | 0.0633 |
| N=C(N)c1ccc(OCCCCCOc2ccc(C(=N)N)cc2)cc1 [Pentamidine isethionate] | 0.0146 |
| N#CC[C@H](C1CCCC1)n1cc(-c2ncnc3[nH]ccc23)cn1 [Ruxolitinib phosphate] | 0.0143 |
| CC1=C[C@H](O)CC(C)(C)[C@H]1/C=C/C(C)=C/C=C/C(C)=C/C=C/C=C(C)/C=C/C=C(C)/C=C/C1=C(C)C[C@@H](O)CC1(C)C [Lutein] | 0.00501 |
| Oc1ccc(O)cc1 [Hydroquinone] | 0.0305 |
